Source: PubChem BioAssay AID2202238 (Ras Initiative Chemistry Research Team, Frederick National …, 2025)
Some of the results follow. Further columns of the screen follow, without active or inactive calls.

Molecular target: GTPase KRas (Homo sapiens) (UniProt P01116)
Experiment: Cysteine mutants labelled by reactive fragments (mass read-out) (AID 2202238)
Set-up: protein at 5 µM with 500 µM competing thiol for 1.5 h
Details: KRAS G12D cysteine mutants, disulfide tethering, MALDI-TOF labeling, stronger effect = higher value, fragment at 500 µM
[1] = measured here: G75C mutant labeling
[2] = measured here: H94C mutant labeling
[3] = measured here: I36C mutant labeling
[4] = measured here: L120C mutant labeling
[5] = measured here: M67C mutant labeling
[6] = measured here: M72C mutant labeling
[7] = measured here: N86C mutant labeling
[8] = measured here: P121C mutant labeling
[9] = measured here: S122C mutant labeling
[10] = measured here: S136C mutant labeling
[11] = measured here: G60C mutant labeling
[12] = measured here: N26C mutant labeling

Chain of UniProt P01116 (P01116 whole entry, looked up, the tested form may be a part): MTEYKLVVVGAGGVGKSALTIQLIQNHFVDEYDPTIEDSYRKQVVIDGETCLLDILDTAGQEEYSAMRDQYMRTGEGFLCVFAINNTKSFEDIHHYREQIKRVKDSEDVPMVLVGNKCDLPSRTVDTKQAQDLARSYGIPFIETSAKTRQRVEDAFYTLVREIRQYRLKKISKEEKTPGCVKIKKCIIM

Row | SMILES | percent labeling [1] | percent labeling [2] | percent labeling [3] | percent labeling [4] | percent labeling [5] | percent labeling [6] | percent labeling [7] | percent labeling [8] | percent labeling [9] | percent labeling [10] | percent labeling [11] | percent labeling [12]
1 | CN(C)Cc1csc(CNC(=O)CCS)n1 | 7.9% | 24% | 35.7% | 21.5% | 40.1% | 11.1% | 19.4% | 22.8% | 28.3% | 40.3% |  | 
2 | Cc1onc(-c2ccccc2)c1NC(=O)CCS | 14.7% | 36.9% | 38.8% | 22.1% | 38.1% | 36% | 21.8% | 34% | 29.3% | 53.8% |  | 
3 | O=C(CCS)N1CCC(N2C(=O)CCCC2=O)CC1 | 6.1% | 26.8% | 26.6% | 27.5% | 35.6% | 13.4% | 28.1% | 27.9% | 24.8% | 44.4% |  | 
4 | O=C(CCc1ccc2cccnc2c1)NCCS | 23% | 31.3% | 31.2% | 33.2% | 35.9% | 40.2% | 25.2% | 33.7% | 32.5% | 42.4% | 49.1% | 43.6%
5 | O=C(CCS)N1CC2ON=C(C(F)F)C2C1 (centres undefined) | 22.5% | 29.9% | 33.6% | 33.6% | 29.3% | 23.3% | 31.3% | 34% | 39.5% | 54.3% |  | 
6 | Cn1nc(C(=O)NCCS)c(=O)c2ccccc21 | 43.3% | 27.8% | 17.6% | 37.9% | 36.6% | 79.8% | 18.9% | 42.1% | 12.1% | 43.9% | 34.7% | 45.5%
7 | O=C(CCS)NCCc1nccc(C(F)F)n1 | 8% | 24.3% | 37.6% | 27.2% | 28.9% | 12.6% | 25.1% | 35.2% | 38.7% | 47.2% |  | 
8 | NC(=O)COc1cccc(NC(=O)CCS)c1 | 19.7% | 37.6% | 41.2% | 31.3% | 30.1% | 38.9% | 31.7% | 31.7% | 39.8% | 48.5% |  | 
9 | O=C1CCCc2cc(C(=O)NCCS)ccc2N1 | 19.6% | 37.1% | 27.6% | 34.3% | 28.7% | 33.1% | 23.5% | 25% | 24.8% | 43.9% | 31.2% | 42.3%
10 | CC(O)(C(=O)NCCS)C1CCC1 (centres undefined) | 21.8% | 39.5% | 26.6% | 44.4% | 29.6% | 27.4% | 37.9% | 33.3% | 32.6% | 41.1% | 39.1% | 31.1%
11 | Cc1noc(C)c1CN(Cc1c(C)noc1C)C(=O)CCS | 12.5% | 41.2% | 40.5% | 22.7% | 44.7% | 31.1% | 27.2% | 36.4% | 34.5% | 61.1% |  | 
12 | O=C(CCS)NCc1ncoc1-c1ccccc1 | 12.9% | 37.5% | 44.1% | 31.1% | 34.2% | 50.5% | 25.4% | 35.1% | 30% | 61.4% |  | 
13 | O=C(CCS)N1CCn2cccc2C12CCC2 | 5.9% | 3.6% | 14.1% | 0% | 2.4% | 0% | 6.5% | 0% | 3.4% | 0% |  | 
14 | O=C(CCS)NCc1c(F)cccc1OC(F)F | 13.9% | 40.9% | 40.3% | 34.7% | 39.8% | 42.8% | 35.3% | 35.2% | 40.6% | 62.7% |  | 
15 | O=C(NCCS)c1cc2c(C(F)(F)F)cc(=O)[nH]c2o1 | 27.9% | 32.9% | 26.9% | 45.5% | 33.2% | 56.6% | 30.3% | 34.4% | 39.7% | 43.2% | 59.3% | 43.8%
16 | CCOC(=O)c1cnc(N2CCN(C(=O)CCS)CC2)s1 | 11.4% | 24.9% | 30.2% | 18.6% | 27.2% | 21.4% | 22.1% | 18.4% | 19.1% | 34.6% |  | 

Row | SMILES | percent labeling [1] | percent labeling [2] | percent labeling [3] | percent labeling [4] | percent labeling [5] | percent labeling [6] | percent labeling [7] | percent labeling [8] | percent labeling [9] | percent labeling [10] | percent labeling [11] | percent labeling [12]
17 | CN1C2(CCC2)COCC1(CO)CNC(=O)CCS (centres undefined) | 8.2% | 34.2% | 42.5% | 31.1% | 37.9% | 13.7% | 24.7% | 30.9% | 31.8% | 47.7% |  | 
18 | O=C(Cc1ccc(N2CCCC2=O)cc1)NCCS | 14.5% | 35.6% | 27.1% | 38.6% | 30.8% | 36.9% | 30.7% | 32% | 32.1% | 44.3% | 37.5% | 40.2%
19 | Cc1nc(CN2CCN(C(=O)CCS)CC2)oc1C | 8.7% | 31.6% | 36.1% | 30.8% | 41.6% | 20.6% | 29.8% | 38.2% | 39.3% | 61.4% |  | 
20 | O=C(Cc1nc2ccccn2c1Br)NCCS | 13.9% | 23.3% | 18.1% | 45.3% | 15.7% | 19.5% | 11.2% | 20.2% | 10.4% | 30% | 35.2% | 21.1%
21 | O=C(Cn1cnc(-c2ccccc2)n1)NCCS | 5.1% | 23% | 25% | 41.6% | 36.8% | 21.7% | 15.9% | 28.8% | 24% | 32.6% | 26.5% | 28.5%
22 | O=C(NCCS)c1csc(C2CCCO2)n1 (centres undefined) | 18.6% | 37.3% | 26.6% | 39.3% | 31.5% | 35.3% | 20.8% | 28.6% | 31.3% | 52.6% | 34.7% | 39.5%
23 | COc1ccc(Br)c(C(=O)NCCCNC(=O)CCS)c1 | 11.5% | 29.9% | 28.9% | 35.3% | 29.8% | 26.3% | 25.4% | 30.1% | 34.8% | 50.1% |  | 
24 | O=C(CCS)NC1CCN(c2nc(Cl)ncc2F)C1 (centres undefined) | 11.5% | 36.5% | 46.1% | 31.8% | 50.1% | 26.2% | 37.1% | 33.3% | 28.5% | 51.4% |  | 
25 | CCCc1noc(-c2cccc(CNC(=O)CCS)c2)n1 | 15.3% | 25.3% | 29.8% | 18.7% | 25.6% | 36.4% | 21.5% | 21.9% | 19.8% | 38.8% |  | 
26 | O=C(NCCS)C1CCCN1c1ncc(C(F)(F)F)cc1Cl (centres undefined) | 14.1% | 45.9% | 7.9% | 17.4% | 13.5% | 21.8% | 11.4% | 12.5% | 9.2% | 18.7% | 38.5% | 21.2%
27 | CC(CC(=O)NCCS)N1CCc2ccccc21 (centres undefined) | 0% | 6.8% | 3.2% | 11.9% | 10.1% | 3.3% | 0% | 12.2% | 3.7% | 3.6% | 23.9% | 8.5%
28 | O=C(CCS)N1CCc2[nH]c3ccc(F)cc3c(=O)c2C1 | 12.1% | 30.3% | 37.3% | 26% | 32.8% | 41.5% | 22.5% | 26.7% | 21.7% | 55.8% |  | 
29 | O=C(CCS)N1CCN(Cc2nc3ccsc3c(=O)[nH]2)CC1 | 19.3% | 27.3% | 31.2% | 23.6% | 41.8% | 18.8% | 25.6% | 30.2% | 27.1% | 52.8% |  | 
30 | CCn1ncnc1-c1ccc(C(=O)NCCS)cc1 | 20.7% | 31.8% | 27.3% | 41.3% | 36.3% | 43% | 31.9% | 31.6% | 30.8% | 47.9% | 42.1% | 42.7%
31 | O=C(CCS)NC1CCc2sc(Cl)cc21 (centres undefined) | 14.7% | 33.1% | 26.9% | 19.3% | 22.3% | 31.8% | 16.9% | 24% | 19.2% | 44% |  | 
